From publication PMC9911399, “Two distinct binding modes provide the RNA-binding protein RbFox with extraordinary sequence specificity” come the findings set out here.

The chains are these.
T1: RBFOX1 RRM (Homo sapiens, UniProt Q9NWB1 109-208)
T1 sequence: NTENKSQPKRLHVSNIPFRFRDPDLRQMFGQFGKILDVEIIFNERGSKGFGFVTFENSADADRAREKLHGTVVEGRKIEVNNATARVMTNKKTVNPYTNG

B1: AGUUGUA (DNA:RNA)
RNA: GGGAGACCGGAAUUCAGAUUGUCCAGUUGUAUUAAAUCCCGUCGUAGCCACCA
DNA 1: CAATCTGAATTCCGGTCTCCC
DNA 2: TGGTGGCTACGACGGGATT
B2: AUCGGGG (DNA:RNA)
RNA: B1 RNA with G26U, U27C, U28G, U30G, A31G
DNA 1: CAATCTGAATTCCGGTCTCCC
DNA 2: TGGTGGCTACGACGGGATT
B3: AACAGUA (DNA:RNA)
RNA: B1 RNA with G26A, U27C, U28A
DNA 1: CAATCTGAATTCCGGTCTCCC
DNA 2: TGGTGGCTACGACGGGATT
B4: ACAGCAG (DNA:RNA)
RNA: B1 RNA with G26C, U27A, U28G, G29C, U30A, A31G
DNA 1: CAATCTGAATTCCGGTCTCCC
DNA 2: TGGTGGCTACGACGGGATT
B5: GCUACAA (DNA:RNA)
RNA: B1 RNA with A25G, G26C, U28A, G29C, U30A
DNA 1: CAATCTGAATTCCGGTCTCCC
DNA 2: TGGTGGCTACGACGGGATT
B6: GAGUCGG (DNA:RNA)
RNA: B1 RNA with A25G, G26A, U27G, G29C, U30G, A31G
DNA 1: CAATCTGAATTCCGGTCTCCC
DNA 2: TGGTGGCTACGACGGGATT
B7: GUCGAAG (DNA:RNA)
RNA: GGGAGACCGGAAUUCAGAUUGUCCGUCGAAGUUAAAUCCCGUCGUAGCCACCA
DNA 1: CAATCTGAATTCCGGTCTCCC
DNA 2: TGGTGGCTACGACGGGATT
B8: GUAUUCA (DNA:RNA)
RNA: B1 RNA with A25G, G26U, U27A, G29U, U30C
DNA 1: CAATCTGAATTCCGGTCTCCC
DNA 2: TGGTGGCTACGACGGGATT
B9: GGAUAUG (DNA:RNA)
RNA: B1 RNA with A25G, U27A, G29A, A31G
DNA 1: CAATCTGAATTCCGGTCTCCC
DNA 2: TGGTGGCTACGACGGGATT
B10: AGGUCAC (DNA:RNA)
RNA: B1 RNA with U27G, G29C, U30A, A31C
DNA 1: CAATCTGAATTCCGGTCTCCC
DNA 2: TGGTGGCTACGACGGGATT
B11: ACUACCG (DNA:RNA)
RNA: B1 RNA with G26C, U28A, G29C, U30C, A31G
DNA 1: CAATCTGAATTCCGGTCTCCC
DNA 2: TGGTGGCTACGACGGGATT
B12: UGAGCCG (DNA:RNA)
RNA: B7 RNA with G25U, U26G, C27A, A29C, A30C
DNA 1: CAATCTGAATTCCGGTCTCCC
DNA 2: TGGTGGCTACGACGGGATT
B13: GAUGCCC (DNA:RNA)
RNA: B7 RNA with U26A, C27U, A29C, A30C, G31C
DNA 1: CAATCTGAATTCCGGTCTCCC
DNA 2: TGGTGGCTACGACGGGATT
B14: CAAUGCG (DNA:RNA)
RNA: B1 RNA with A25C, G26A, U27A, U30C, A31G
DNA 1: CAATCTGAATTCCGGTCTCCC
DNA 2: TGGTGGCTACGACGGGATT
B15: GCGUCAC (DNA:RNA)
RNA: B7 RNA with U26C, C27G, G28U, A29C, G31C
DNA 1: CAATCTGAATTCCGGTCTCCC
DNA 2: TGGTGGCTACGACGGGATT
B16: CAAAGUG (DNA:RNA)
RNA: B1 RNA with A25C, G26A, U27A, U28A, A31G
DNA 1: CAATCTGAATTCCGGTCTCCC
DNA 2: TGGTGGCTACGACGGGATT
B17: AUUACUC (DNA:RNA)
RNA: B1 RNA with G26U, U28A, G29C, A31C
DNA 1: CAATCTGAATTCCGGTCTCCC
DNA 2: TGGTGGCTACGACGGGATT
B18: AUAAUCU (DNA:RNA)
RNA: B1 RNA with G26U, U27A, U28A, G29U, U30C, A31U
DNA 1: CAATCTGAATTCCGGTCTCCC
DNA 2: TGGTGGCTACGACGGGATT
B19: UUAUCGC (DNA:RNA)
RNA: B1 RNA with A25U, G26U, U27A, G29C, U30G, A31C
DNA 1: CAATCTGAATTCCGGTCTCCC
DNA 2: TGGTGGCTACGACGGGATT
B20: CCGCGGU (DNA:RNA)
RNA: B1 RNA with A25C, G26C, U27G, U28C, U30G, A31U
DNA 1: CAATCTGAATTCCGGTCTCCC
DNA 2: TGGTGGCTACGACGGGATT
B21: CGGCACA (DNA:RNA)
RNA: B1 RNA with A25C, U27G, U28C, G29A, U30C
DNA 1: CAATCTGAATTCCGGTCTCCC
DNA 2: TGGTGGCTACGACGGGATT
B22: GGUGGAG (DNA:RNA)
RNA: B7 RNA with U26G, C27U, A29G
DNA 1: CAATCTGAATTCCGGTCTCCC
DNA 2: TGGTGGCTACGACGGGATT
B23: UAUUCUU (DNA:RNA)
RNA: B1 RNA with A25U, G26A, G29C, A31U
DNA 1: CAATCTGAATTCCGGTCTCCC
DNA 2: TGGTGGCTACGACGGGATT
B24: UUGCAAU (DNA:RNA)
RNA: B7 RNA with G25U, C27G, G28C, G31U
DNA 1: CAATCTGAATTCCGGTCTCCC
DNA 2: TGGTGGCTACGACGGGATT
B25: CACCCAG (DNA:RNA)
RNA: B7 RNA with G25C, U26A, G28C, A29C
DNA 1: CAATCTGAATTCCGGTCTCCC
DNA 2: TGGTGGCTACGACGGGATT
B26: AGUGUAA (DNA:RNA)
RNA: B1 RNA with U28G, G29U, U30A
DNA 1: CAATCTGAATTCCGGTCTCCC
DNA 2: TGGTGGCTACGACGGGATT
B27: AGCUCAG (DNA:RNA)
RNA: B1 RNA with U27C, G29C, U30A, A31G
DNA 1: CAATCTGAATTCCGGTCTCCC
DNA 2: TGGTGGCTACGACGGGATT
B28: ACACUUC (DNA:RNA)
RNA: B1 RNA with G26C, U27A, U28C, G29U, A31C
DNA 1: CAATCTGAATTCCGGTCTCCC
DNA 2: TGGTGGCTACGACGGGATT
B29: GUCGACC (DNA:RNA)
RNA: B7 RNA with A30C, G31C
DNA 1: CAATCTGAATTCCGGTCTCCC
DNA 2: TGGTGGCTACGACGGGATT
B30: GCGCCCC (DNA:RNA)
RNA: B7 RNA with U26C, C27G, G28C, A29C, A30C, G31C
DNA 1: CAATCTGAATTCCGGTCTCCC
DNA 2: TGGTGGCTACGACGGGATT
B31: UGCUUAC (DNA:RNA)
RNA: B1 RNA with A25U, U27C, G29U, U30A, A31C
DNA 1: CAATCTGAATTCCGGTCTCCC
DNA 2: TGGTGGCTACGACGGGATT

Substitutions are numbered along the chain they refer to; changes in the protein carry UniProt numbers. This is one part of the list.

The target of this assay is T1, RBFOX1 RRM. Nature of the assay: EMSA; HiTS-Eq, 1 nM pool, 10 min; buffer printed only for the single-RNA assays: 10 mM Tris pH 7.5, 150 mM NaCl, 3.4 mM EDTA, 0.001% NP-40, 30 C. As to conditions: tags: His6 N-terminal (pET28a); label: 5' 32P. In outline:
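These values rest on relative association constants, computed from read-count changes of each RNA species versus the control reaction and normalised to the cognate motif. Reads came from free RNA recovered by 8% native PAGE after purified RbFox RRM (wild type or mutant) at increasing concentrations was equilibrated for 10 min in 50 µL with 1 nM of a 5′-radiolabelled pool with 7 randomized nucleotides and DNA-annealed flanks.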
For orientation: Mobility shift assays separate free from complexed probe on a gel.
As for B1, the binding signal was 0.0101 KA relative to UGCAUGU. For the molecule B2, the binding signal is 0.00735 KA relative to UGCAUGU. B3: the binding signal is 0.00245 KA relative to UGCAUGU. For B4, the binding signal is 0.00511 KA relative to UGCAUGU. As for B5, the binding signal was 0.0067 KA relative to UGCAUGU. For B6, the binding signal is 0.0121 KA relative to UGCAUGU. Regarding B7, the binding signal was 0.0181 KA relative to UGCAUGU. Regarding B8, the binding signal is 0.00532 KA relative to UGCAUGU. Turning to B9, the binding signal is 0.0169 KA relative to UGCAUGU. Regarding B10, the binding signal is 0.0109 KA relative to UGCAUGU. The value for B11 was 0.00321 KA relative to UGCAUGU; that for B12 was 0.0121 KA relative to UGCAUGU.

Turning to B13, the binding signal was 0.0136 KA relative to UGCAUGU.

Take B14: the binding signal was 0.00919 KA relative to UGCAUGU.

On to B15, for which the binding signal is 0.00726 KA relative to UGCAUGU. Consider B16, for which the binding signal is 0.00792 KA relative to UGCAUGU. In the case of B17, the binding signal was 0.000413 KA relative to UGCAUGU. In the case of B18, the binding signal was 0.000154 KA relative to UGCAUGU. In the case of B19, the binding signal was 0.0112 KA relative to UGCAUGU. Next, B20: 0.0132 KA relative to UGCAUGU; B21: 0.0095 KA relative to UGCAUGU. The value for B22 was 0.0114 KA relative to UGCAUGU. The value for B23 was 0.0097 KA relative to UGCAUGU; that for B24 was 0.0162 KA relative to UGCAUGU; that for B25 was 0.00179 KA relative to UGCAUGU. Consider B26, for which the binding signal was 0.00945 KA relative to UGCAUGU. As for B27, the binding signal was 0.0097 KA relative to UGCAUGU. With B28, the binding signal was 0.00103 KA relative to UGCAUGU. With B29, the binding signal was 0.0106 KA relative to UGCAUGU.

On to B30, for which the binding signal was 0.00808 KA relative to UGCAUGU.

Turning to B31, the binding signal is 0.0169 KA relative to UGCAUGU.
